According to patent US11420968B2 (priority 2018, dated 2022):
Like-named read-outs stand apart in the source and are kept apart here.

Tests used:
Molt-4 cells = assay: cells; details: Homo sapiens
RS4;11 cells = assay: cells; details: Homo sapiens
[1] = MOLT-4, read-out: Celluclar activity (IC50, nM) Molt-4
[2] = MOLT-4, read-out: Cellular activity (IC50, nM) Molt-4
[3] = RS4-11, 48 h, read-out: Cellular activity (IC50, nM) RS4;11
[4] = RS4-11, read-out: Celluclar activity (IC50, nM) RS 4, 11

## CN(C)c1ccccc1[C@@H]1CCCN1C1CC2(CCN(c3ccc(C(=O)NS(=O)(=O)c4ccc(NC[C@H]5CC[C@](C)(O)CC5)c([N+](=O)[O-])c4)c(Oc4cnc5[nH]ccc5c4)c3)CC2)C1 [Example F63, 2-((1H-pyrrolo[2,3-b]pyridin-5-yl)oxy)-4-(2-((S)-2-(2-(dimethylamino)phenyl)pyrrolidin-1-yl)-7-azaspiro[3.5]nonan-7-yl)-N-((4-((((1r,4r)-4-hydroxy-4-methylcyclohexyl)methyl)amino)-3-nitrophenyl)sulfonyl)benzamide]
Molt-4 cells; [1]
  IC50: 6820 nM
Molt-4 cells; [2]
  IC50: 6820 nM
RS4;11 cells; [3]
  IC50: 0.8 nM
RS4;11 cells; [4]
  IC50: 0.8 nM

## [2H]C([2H])([2H])N(c1ccccc1[C@@H]1CCCN1C1CC2(CCN(c3ccc(C(=O)NS(=O)(=O)c4ccc(NC[C@H]5CC[C@](C)(O)CC5)c([N+](=O)[O-])c4)c(Oc4cnc5[nH]ccc5c4)c3)CC2)C1)C([2H])([2H])[2H] [Example F64, 2-((1H-pyrrolo[2,3-b]pyridin-5-yl)oxy)-4-(2-((S)-2-(2-(bis(methyl-d3)amino)phenyl)pyrrolidin-1-yl)-7-azaspiro[3.5]nonan-7-yl)-N-((4-((((1r,4r)-4-hydroxy-4-methylcyclohexyl)methyl)amino)-3-nitrophenyl)sulfonyl)benzamide]
Molt-4 cells; [1]
  IC50: 2440 nM
Molt-4 cells; [2]
  IC50: 2440 nM
RS4;11 cells; [3]
  IC50: 0.8 nM
RS4;11 cells; [4]
  IC50: 0.8 nM

## O=C(NS(=O)(=O)c1ccc(NCC2CCOCC2)c([N+](=O)[O-])c1)c1ccc(N2CCC3(CC2)CC(N2CCCC2c2ccccc2CO)C3)cc1Oc1cnc2[nH]ccc2c1 (centres unmarked) [Example F71, 2-((1H-pyrrolo[2,3-b]pyridin-5-yl)oxy)-4-(2-(2-(2-(hydroxymethyl)phenyl)pyrrolidin-1-yl)-7-azaspiro[3.5]nonan-7-yl)-N-((3-nitro-4-(((tetrahydro-2H-pyran-4-yl)methyl)amino)phenyl)sulfonyl)benzamide]
Molt-4 cells; [2]
  IC50: > 10000 nM
RS4;11 cells; [3]
  IC50: 1290 nM

## O=C(NS(=O)(=O)c1ccc(NCC2CCOCC2)c([N+](=O)[O-])c1)c1ccc(N2CCC3(CC2)CC(N2CCCC2c2cc(Cl)ccc2C2CC2)C3)cc1Oc1cnc2[nH]ccc2c1 (centres unmarked) [Example F73, 2-((1H-pyrrolo[2,3-b]pyridin-5-yl)oxy)-4-(2-(2-(5-chloro-2-cyclopropylphenyl)pyrrolidin-1-yl)-7-azaspiro[3.5]nonan-7-yl)-N -((3-nitro-4-(((tetrahydro-2H -pyran-4-yl)methyl)amino)phenyl)sulfonyl)benzamide]
Molt-4 cells; [2]
  IC50: > 10000 nM
RS4;11 cells; [3]
  IC50: 63 nM

## O=C(NS(=O)(=O)c1ccc(NCC2CCOCC2)c([N+](=O)[O-])c1)c1ccc(N2CCC3(CC2)CC(N2CCCC2c2ccc(C4CC4)cc2C2CC2)C3)cc1Oc1cnc2[nH]ccc2c1 (centres unmarked) [Example F75, 2-((1H-pyrrolo[2,3-b]pyridin-5-yl)oxy)-4-(2-(2-(2,4-dicyclopropylphenyl)pyrrolidin-1-yl)-7-azaspiro[3.5]nonan-7-yl)-N-((3-nitro-4-(((tetrahydro-2H-pyran-4-yl)methyl)amino)phenyl)sulfonyl)benzamide]
Molt-4 cells; [2]
  IC50: 2040 nM
RS4;11 cells; [3]
  IC50: 36 nM

## CC1CC(c2ccccc2C2CC2)N(C2CC3(CCN(c4ccc(C(=O)NS(=O)(=O)c5ccc(NCC6CCOCC6)c([N+](=O)[O-])c5)c(Oc5cnc6[nH]ccc6c5)c4)CC3)C2)C1 (centres unmarked) [Example F78, 2-((1H-pyrrolo[2,3-b]pyridin-5-yl)oxy)-4-(2-(2-(2-cyclopropylphenyl)-4-methylpyrrolidin-1-yl)-7-azaspiro[3.5]nonan-7-yl)-N-((3-nitro-4-(((tetrahydro-2H-pyran-4-yl)methyl)amino)phenyl)sulfonyl)benzamide]
Molt-4 cells; [2]
  IC50: 3570 nM
RS4;11 cells; [3]
  IC50: 1.5 nM

## O=C(NS(=O)(=O)c1ccc(NCC2CCOCC2)c([N+](=O)[O-])c1)c1ccc(N2CCC3(CC2)CC(N2CC(C4CC4)CC2c2ccccc2C2CC2)C3)cc1Oc1cnc2[nH]ccc2c1 (centres unmarked) [Example F79, 2-((1H-pyrrolo[2,3-b]pyridin-5-yl)oxy)-4-(2-(4-cyclopropyl-2-(2-cyclopropylphenyl)pyrrolidin-1-yl)-7-azaspiro[3.5]nonan-7-yl)-N-((3-nitro-4-(((tetrahydro-2H-pyran-4-yl)methyl)amino)phenyl)sulfonyl)benzamide]
Molt-4 cells; [2]
  IC50: > 10000 nM
RS4;11 cells; [3]
  IC50: 38 nM

## O=C(NS(=O)(=O)c1ccc(NCC2CCOCC2)c([N+](=O)[O-])c1)c1ccc(N2CCC3(CC2)CC(N2CC4(CC4)CC2c2ccccc2C2CC2)C3)cc1Oc1cnc2[nH]ccc2c1 (centres unmarked) [Example F81, 2-((1H-pyrrolo[2,3-b]pyridin-5-yl)oxy)-4-(2-(6-(2-cyclopropylphenyl)-5-azaspiro[2.4]heptan-5-yl)-7-azaspiro[3.5]nonan-7-yl)-N-((3-nitro-4-(((tetrahydro-2H-pyran-4-yl)methyl)amino)phenyl)sulfonyl)benzamide]
Molt-4 cells; [2]
  IC50: 1700 nM
RS4;11 cells; [3]
  IC50: 11 nM

## CC1(C)CC(c2ccccc2C2CC2)N(C2CC3(CCN(c4ccc(C(=O)NS(=O)(=O)c5ccc(NCC6CCOCC6)c([N+](=O)[O-])c5)c(Oc5cnc6[nH]ccc6c5)c4)CC3)C2)C1 (centres unmarked) [Example F82, 2-((1H-pyrrolo[2,3-b]pyridin-5-yl)oxy)-4-(2-(2-(2-cyclopropylphenyl)-4,4-dimethylpyrrolidin-1-yl)-7-azaspiro[3.5]nonan-7-yl)-N-((3-nitro-4-(((tetrahydro-2H-pyran-4-yl)methyl)amino)phenyl)sulfonyl)benzamide]
Molt-4 cells; [2]
  IC50: 2490 nM
RS4;11 cells; [3]
  IC50: 7.6 nM

## O=C(NS(=O)(=O)c1ccc(NCC2CCOCC2)c([N+](=O)[O-])c1)c1ccc(N2CCC3(CC2)CC(N2CC(F)(F)CC2c2ccccc2C2CC2)C3)cc1Oc1cnc2[nH]ccc2c1 (centres unmarked) [Example F83, 2-((1H-pyrrolo[2,3-b]pyridin-5-yl)oxy)-4-(2-(2-(2-cyclopropylphenyl)-4,4-difluoropyrrolidin-1-yl)-7-azaspiro[3.5]nonan-7-yl)-N-((3-nitro-4-(((tetrahydro-2H-pyran-4-yl)methyl)amino)phenyl)sulfonyl)benzamide]
Molt-4 cells; [2]
  IC50: 4830 nM
RS4;11 cells; [3]
  IC50: 60 nM

## C[C@]1(O)CC[C@H](CNc2ccc(S(=O)(=O)NC(=O)c3ccc(N4CCC5(CC4)CC(N4CC(C(F)(F)F)CC4c4ccccc4C4CC4)C5)cc3Oc3cnc4[nH]ccc4c3)cc2[N+](=O)[O-])CC1 (some centres unmarked) [Example F84, 2-((1H-pyrrolo[2,3-b]pyridin-5-yl)oxy)-4-(2-(2-(2-cyclopropylphenyl)-4-(trifluoromethyl)pyrrolidin-1-yl)-7-azaspiro[3.5]nonan-7-yl)-N-((4-((((1r,4r)-4-hydroxy-4-methylcyclohexyl)methyl)amino)-3-nitrophenyl)sulfonyl)benzamide]
Molt-4 cells; [2]
  IC50: 2230 nM
RS4;11 cells; [3]
  IC50: 44 nM

## CN(C)C1CC(c2ccccc2C2CC2)N(C2CC3(CCN(c4ccc(C(=O)NS(=O)(=O)c5ccc(NCC6CCOCC6)c([N+](=O)[O-])c5)c(Oc5cnc6[nH]ccc6c5)c4)CC3)C2)C1 (centres unmarked) [Example F85, 2-((1H-pyrrolo[2,3-b]pyridin-5-yl)oxy)-4-(2-(2-(2-cyclopropylphenyl)-4-(dimethylamino)pyrrolidin-1-yl)-7-azaspiro[3.5]nonan-7-yl)-N-((3-nitro-4-(((tetrahydro-2H-pyran-4-yl)methyl)amino)phenyl)sulfonyl)benzamide]
Molt-4 cells; [2]
  IC50: 3510 nM
RS4;11 cells; [3]
  IC50: 3.5 nM

## CN(C)CCOC1CC(c2ccccc2C2CC2)N(C2CC3(CCN(c4ccc(C(=O)NS(=O)(=O)c5ccc(NCC6CCOCC6)c([N+](=O)[O-])c5)c(Oc5cnc6[nH]ccc6c5)c4)CC3)C2)C1 (centres unmarked) [Example F86, 2-((1H-pyrrolo[2,3-b]pyridin-5-yl)oxy)-4-(2-(2-(2-cyclopropylphenyl)-4-(2-(dimethylamino)ethoxy)pyrrolidin-1-yl)-7-azaspiro[3.5]nonan-7-yl)-N-((3-nitro-4-(((tetrahydro-2H-pyran-4-yl)methyl)amino)phenyl)sulfonyl)benzamide]
Molt-4 cells; [2]
  IC50: > 10000 nM
RS4;11 cells; [3]
  IC50: 32 nM

## O=C(NS(=O)(=O)c1ccc(NCC2CCOCC2)c([N+](=O)[O-])c1)c1ccc(N2CCC3(CC2)CC(N2C(c4ccccc4C4CC4)CC4CC42)C3)cc1Oc1cnc2[nH]ccc2c1 (centres unmarked) [Example F87, 2-((1H-pyrrolo[2,3-b]pyridin-5-yl)oxy)-4-(2-(3-(2-cyclopropylphenyl)-2-azabicyclo[3.1.0]hexan-2-yl)-7-azaspiro[3.5]nonan-7-yl)-N-((3-nitro-4-(((tetrahydro-2H-pyran-4-yl)methyl)amino)phenyl)sulfonyl)benzamide]
Molt-4 cells; [2]
  IC50: > 10000 nM
RS4;11 cells; [3]
  IC50: 36 nM

## O=C(NS(=O)(=O)c1ccc(NCC2CCOCC2)c([N+](=O)[O-])c1)c1ccc(N2CCC3(CC2)CC(N2CC4CCCC4C2c2ccccc2C2CC2)C3)cc1Oc1cnc2[nH]ccc2c1 (centres unmarked) [Example F88, 2-((1H-pyrrolo[2,3-b]pyridin-5-yl)oxy)-4-(2-(1-(2-cyclopropylphenyl)hexahydrocyclopenta[c]pyrrol-2(1H)-yl)-7-azaspiro[3.5]nonan-7-yl)-N-((3-nitro-4-(((tetrahydro-2H-pyran-4-yl)methyl)amino)phenyl)sulfonyl)benzamide]
Molt-4 cells; [2]
  IC50: 6980 nM
RS4;11 cells; [3]
  IC50: 13 nM

## CC1(C)CCN(C2CC3(CCN(c4ccc(C(=O)NS(=O)(=O)c5ccc(NCC6CCOCC6)c([N+](=O)[O-])c5)c(Oc5cnc6[nH]ccc6c5)c4)CC3)C2)C1c1ccccc1C1CC1 (centres unmarked) [Example F89, 2-((1H-pyrrolo[2,3-b]pyridin-5-yl)oxy)-4-(2-(2-(2-cyclopropylphenyl)-3,3-dimethylpyrrolidin-1-yl)-7-azaspiro[3.5]nonan-7-yl)-N-((3-nitro-4-(((tetrahydro-2H-pyran-4-yl)methyl)amino)phenyl)sulfonyl)benzamide]
Molt-4 cells; [2]
  IC50: 4010 nM
RS4;11 cells; [3]
  IC50: 27 nM

## CN1CCN(C2CC3(CCN(c4ccc(C(=O)NS(=O)(=O)c5ccc(NCC6CCOCC6)c([N+](=O)[O-])c5)c(Oc5cnc6[nH]ccc6c5)c4)CC3)C2)C(c2ccccc2C2CC2)C1 (centres unmarked) [Example F90, 2-((1H-pyrrolo[2,3-b]pyridin-5-yl)oxy)-4-(2-(2-(2-cyclopropylphenyl)-4-methylpiperazin-1-yl)-7-azaspiro[3.5]nonan-7-yl)-N-((3-nitro-4-(((tetrahydro-2H-pyran-4-yl)methyl)amino)phenyl)sulfonyl)benzamide]
Molt-4 cells; [1]
  IC50: > 10000 nM
Molt-4 cells; [2]
  IC50: > 10000 nM
RS4;11 cells; [3]
  IC50: 3.6 nM
RS4;11 cells; [4]
  IC50: 3.6 nM
RS4;11 cells; RS4-11, read-out: Cellular activity (IC50, nM) RS4, 11
  IC50: 3.6 nM
